Assay results reported in the supplement of paper PMC5499739.
In all, about 16,000 sequences were measured (“Z-score”: median about -0.37, highest 2% from about 3.2 on). This is one part of the list.

Each sequence was assayed on RBM10 RRM1-ZnF (GST-tagged construct) (assay: RNAcompete 7-mer binding Z-score; higher = stronger binding preference).
Protocol: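 RNAcompete: 20 pmol GST-tagged RBM10 RNA-binding constructs were incubated with a designed RNA pool of about 241,000 sequences up to 41 nt (1.5 nmol) on glutathione beads for 30 min at 4 °C and washed. Bound RNAs were identified by microarray hybridisation. Each RNA 7-mer is scored by a one-sided Z-score of its enrichment, computed over probes that contain the 7-mer within longer pool sequences.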

Sequence	RNAcompete 7-mer binding Z-score
CACAUAA	-0.678
UGCGACA	-0.145
UUCCUCU	-0.639
UCUGAGG	-0.149
GAUUACC	-0.565
GACGUCG	-0.285
AUUUAAC	-0.561
GACCUGG	-0.191
ACAACGG	0.644
CCCCUGU	-0.5
ACUUUAA	-0.795
AUCAUUC	-0.753
AAACCAU	-0.649
ACAGAGA	0.0885
AGAGUGA	0.81
CUAAUUA	-0.685
UUAUGUA	-0.23
UGAUGAC	-0.0512
AAGCCGA	-0.578
CGCAGCG	-0.11
UGAGUUG	0.625
GUCCGGG	0.797
AUGACCU	-0.795
UGGCCUU	-0.642
UGCCAUU	-0.967

Sequence	RNAcompete 7-mer binding Z-score
AAAAGAA	0.108
GAUGUAU	0.215
AGGCUGU	-0.181
UUGAACC	-0.633
CACUCCU	-0.776
CGCGUCG	-0.0155
GUCGGCG	0.368
AGUAUCC	-0.636
CGCCAAC	-0.444
ACAUCUC	-0.711
AUGUGAA	0.563
ACGAUCC	-0.659
GAGUUCC	-0.474
AUACUGA	-0.123
GGAAGUA	1.44
CUAGGAC	0.335
GCUCAGG	0.547
ACGUAUC	-0.62
ACAAUUG	-0.0772
GCCUCCC	-0.337
GAGACUA	-0.279
CACAACC	-0.552
UAGGAAU	1.22
CUCGACG	-0.558
UCUCCGC	-0.678

Sequence	RNAcompete 7-mer binding Z-score
CCUGAUU	-0.867
CCUUGGC	-0.591
GCCUUAU	-0.915
CUGUGAA	-0.292
GAUCAGA	0.316
ACUGCGG	0.397
AACCACA	-0.454
UAGAACC	-0.578
GUCACUU	-0.539
CUCAUAC	-0.831
UUAGCGA	-0.0837
CUGCAUG	-0.493
CCCAAUC	-0.607
AGUGUUG	0.725
ACCUACA	-0.72
AACUCGG	-0.214
GGAUAGU	1.66
GGGAUAU	3.1
GGUUUAU	0.55
UGUUACU	-0.516
CUUCAGU	-0.467
CAGAACG	0.000789
GGAACGA	1.3
UCACGAG	-0.363
UAAUGGG	2.84

Sequence	RNAcompete 7-mer binding Z-score
AUCCGCU	-0.883
GGCCCAC	-0.649
CCUUACG	-0.818
UAUACAG	-0.321
CCCUCGU	-0.727
GCGCCUA	-0.652
ACCGCUG	-0.662
GCAUGAA	0.0983
AGGGGCA	2.47
UAUGACA	-0.136
UAGAGUC	-0.223
GUGUUUA	0.27
UUGGAGG	2.58
UUGCAAU	-0.688
UGCACCC	-0.431
CUAAAGA	-0.334
GAUUCCA	-0.617
UGUUCCG	-0.565
UAACAGC	-0.438
AGAGAGA	0.244
UUCGCAC	-0.714
GAAUAUU	-0.324
UCUCCCG	-0.623
AUAGUGG	1.49
GGAUUAU	0.764

Sequence	RNAcompete 7-mer binding Z-score
CACUCAA	-0.548
UGGACGA	1.47
GUACUAC	-0.191
GCUUUCC	-0.633
AUACUAG	-0.337
UGAUUUG	-0.24
UCCGAGU	-0.701
ACGAUAU	-0.496
GACACUA	-0.457
CGUUAUC	-0.798
UUACAGA	-0.272
AUGUCGC	-0.415
GAAGCUA	-0.217
GAUCUGC	-0.785
CAUUUAC	-0.85
GUUUCGA	-0.396
UUGAAAG	0.355
UAUCUAU	-0.555
GUAGCAA	0.345
CGCUGCC	-0.487
GAUGUGU	0.625
CCCGUCC	-0.571
CACCACC	-0.0772
CAAAUGA	-0.246
UUCAUAA	-0.698

Sequence	RNAcompete 7-mer binding Z-score
UUGAUCG	-0.188
UGCUCAA	-0.568
GGAUUCA	0.215
UAUUGAU	-0.337
UAACCAC	-0.578
AUUAACA	-0.279
AAGGCUC	-0.0804
GUCUUUC	-0.792
UGUUUCC	-0.6
UAACUAC	-0.61
CCUUAAC	-0.925
UACAUAC	-0.402
CAGUUGA	-0.0512
AAACUCA	-0.597
GAAAUUC	-0.561
UCCCAUG	-0.392
AGUUCUU	-0.759
CAUACCA	-0.639
GGGAAGU	3
UCUAGUA	-0.555
UGGCAGG	1.8
CUCUACC	-0.831
UCGUUCU	-0.776
UGACUCA	-0.48
UUUAGCC	-0.915

Sequence	RNAcompete 7-mer binding Z-score
UAUUCUG	-0.772
GAAUACA	-0.155
GCAAAAU	-0.246
CGACUAC	-0.626
CACGACA	-0.386
UCUUUGA	-0.613
GCCUCUU	-0.844
ACAGUGC	0.0333
AUGGAUC	0.764
CUGCGAC	-0.526
CACCCUU	-0.847
UGAUCAG	0.244
AGGUAUG	2.16
AGAGGCG	0.456
UUUCUAU	-0.75
UCGGCCC	-0.691
UCCACUC	-0.642
CUACUAG	-0.392
UUGGAGC	1.36
CACUGAA	-0.386
UCUGACA	-0.662
CUCACGU	-0.6
UACUCGG	-0.386
AUAUGUG	0.54
CCUGCAA	-0.73

Sequence	RNAcompete 7-mer binding Z-score
UCGCACA	-0.509
CGCGGUC	-0.249
CUUAGGU	-0.227
GGAUGAU	1.79
UAGUUUU	-0.584
CUUCAAA	-0.704
GGCAUCA	0.28
CAAUCUU	-0.87
CAGGUGC	1.23
UUCUGCC	-0.928
GACCCAG	-0.448
CGCAAGU	-0.422
UUAUUAA	-0.607
GAUGCGU	0.0658
ACCACUU	-0.701
CACACCU	-0.61
GCGGCGG	2.08
UUUCAUU	-0.805
CUUUUAA	-0.779
GUGCAUC	-0.288
AUUCUUG	-0.831
AACUCUC	-0.753
UUUUCGA	-0.678
CCCCGCA	-0.331
CCGUUUC	-0.928

Sequence	RNAcompete 7-mer binding Z-score
GGUUCGG	1.33
UCUUUUC	-0.821
UACUUCG	-0.652
UUGUUGU	-0.262
GUGAAUA	0.313
AAUUCAU	-0.633
UCAAGUA	-0.405
CGUCCCU	-0.766
ACGAAUC	-0.5
AAAUUGU	-0.396
UUACUUC	-0.642
CCGAGGA	0.53
CUAUUUU	-0.951
CGAGACC	-0.578
CUAUUCC	-0.844
UCGUACC	-0.665
UAGUUCU	-0.805
GUGAGGG	3.75
UUUUACC	-0.941
AACCGAA	-0.529
UUGGCAU	-0.262
GGAGCCG	0.703
CAGUAUU	-0.646
UGACUUC	-0.688
UUGUGUG	0.157

Sequence	RNAcompete 7-mer binding Z-score
GAACCUC	-0.688
AAACUAA	-0.464
GAGGGUC	1.44
CGAGGAG	1.52
CUAUAUU	-0.668
UAACGGG	2.01
ACUAUUG	-0.513
UUCGAUA	-0.642
GGUUACC	0.605
GCAGCAU	-0.405
AACUACG	-0.295
AAUAACU	-0.565
CCUAAAC	-0.694
GCCGGGG	1.37
AGAGCUC	-0.75
GUACUAU	-0.149
GCGAAAG	0.677
UCCCAGC	-0.48
UGGCAAG	0.586
UCGAACU	-0.724
UCCACCC	-0.383
ACUAUGG	0.566
UGAUACA	-0.155
ACUACAA	-0.623
CCUCGGA	-0.363

Sequence	RNAcompete 7-mer binding Z-score
ACUCAGU	-0.659
GCAUGGC	0.176
CUCACCU	-0.785
GAGCAGG	2.82
CGCACUU	-0.74
ACGCCCC	-0.464
ACAUCAG	-0.376
GAUCAUG	0.0333
UCUAACC	-0.766
UUAGUAU	-0.347
CGGAGCU	0.423
AAAAACG	-0.0447
CGAGCAG	0.618
UAAUUAU	-0.509
AGAGCUU	-0.646
CAUUACG	-0.412
GAGCUUU	-0.571
UAAAUAU	-0.425
AACGAAU	-0.334
GAUAGGA	2.86
UCAUUUA	-0.902
UCAAAUU	-0.613
GCAGUUC	-0.47
CAUUUCU	-0.974
AAUGUUG	0.361

Sequence	RNAcompete 7-mer binding Z-score
CUAAAGC	-0.73
CGCCAGU	-0.448
AGCGACU	-0.5
CGAUCUG	-0.591
AGCAGAU	0.358
CAAUCCU	-0.899
GAGUAAG	1.41
AAGUGGU	1.82
AGAGUUU	-0.106
UAACCUC	-0.617
CGGGUUU	1.44
UGUGGUU	1.84
GGUCUGU	0.196
CAGCCGA	-0.578
GGGACAG	2.78
UGAAAAC	-0.441
GUCCGAG	-0.22
UACCUCG	-0.659
CUCUAGU	-0.811
GCCGGUU	-0.0317
CGUUGUG	-0.0707
CACGAGU	-0.223
CUGGCCA	-0.529
CUAAAUC	-0.753
GCUCUCA	-0.529

Sequence	RNAcompete 7-mer binding Z-score
CGCUUUA	-0.85
CCCGUUA	-0.626
UAAUUCC	-0.945
CCCCCAU	-0.448
GCCGGCA	-0.321
CCCACCA	-0.392
CUUUCUA	-0.88
AGGGGCG	2.28
CUGUGGU	0.449
AUAUGCG	0.000789
CUGUUCA	-0.763
UUGCUGU	-0.444
UGUAGGU	1.75
CUAGGCU	-0.441
UUAGGGC	1.17
CUGUUAU	-0.818
ACCACGC	-0.685
UUAGAUC	-0.474
AUUACGC	-0.386
CCCGAAA	-0.75
ACGGGGG	3.27
UUAACUU	-0.737
GUGGCUA	0.595
UGAGAAA	0.118
AGUCUGU	-0.539

Sequence	RNAcompete 7-mer binding Z-score
GAGGCUA	0.115
UUGGGGU	3.27
UUUUUAC	-0.73
AUGGGCU	1.6
CGGAUCG	0.472
UCUCCCA	-0.646
GUAUGGA	2.12
UCGACUG	-0.581
AUGGGAU	3.45
CUGCUGC	-0.435
GCGGUAA	1.17
GAAAAAC	-0.00896
ACGGGAU	2.02
ACCAACA	-0.642
CACUUCC	-0.688
UGGUCUU	-0.422
UCGUGCG	-0.0479
GUGGCGC	0.992
GGCUUAC	-0.392
GAGGCUG	0.888
AGAAACU	-0.617
UUAAAUC	-0.691
ACUCAGG	0.0983
AAGUAAC	-0.119
GCAACUC	-0.629

Sequence	RNAcompete 7-mer binding Z-score
AGGCAAU	0.056
GCAACGA	-0.214
UGCCCCC	-0.305
CCCGACC	-0.737
CUAGGGU	2.25
AAGGAUA	2.99
UCGAUGC	-0.422
UUCUUCG	-0.834
GCAUGUG	0.859
GCUGUAC	-0.331
CUAUUAA	-0.763
CAUAGUU	-0.746
CUCAAAU	-0.698
AAAAGUG	0.764
AUCGGAC	-0.0479
CGCAGAU	-0.389
UCUCCUA	-0.805
